This is an account of results in PubChem BioAssay AID488969 (Vanderbilt High Throughput Screening Facility, 2010).

SMILES strings stand for the structures. Whole data set: some 110,000 compounds, median “z-score” near -0.1, cut for the highest 2% near 2. The list shows a part of the results.

The target of this test is Metabotropic glutamate receptor 8 (Rattus norvegicus) (UniProt P70579). As to the kind of experiment: rat mGluR8 modulators via GIRK flux, primary screen, cell-based, thallium flux, HTS (AID 488969). The conditions noted are these: HEK293 rat mGluR8, GIRK (G protein-gated inwardly rectifying potassium channel) thallium flux, FluoZin2; at 10 µM; stronger effect = higher value; submaximal glutamate (EC20) added with thallium.
Chain of UniProt P70579 (P70579 whole entry, looked up): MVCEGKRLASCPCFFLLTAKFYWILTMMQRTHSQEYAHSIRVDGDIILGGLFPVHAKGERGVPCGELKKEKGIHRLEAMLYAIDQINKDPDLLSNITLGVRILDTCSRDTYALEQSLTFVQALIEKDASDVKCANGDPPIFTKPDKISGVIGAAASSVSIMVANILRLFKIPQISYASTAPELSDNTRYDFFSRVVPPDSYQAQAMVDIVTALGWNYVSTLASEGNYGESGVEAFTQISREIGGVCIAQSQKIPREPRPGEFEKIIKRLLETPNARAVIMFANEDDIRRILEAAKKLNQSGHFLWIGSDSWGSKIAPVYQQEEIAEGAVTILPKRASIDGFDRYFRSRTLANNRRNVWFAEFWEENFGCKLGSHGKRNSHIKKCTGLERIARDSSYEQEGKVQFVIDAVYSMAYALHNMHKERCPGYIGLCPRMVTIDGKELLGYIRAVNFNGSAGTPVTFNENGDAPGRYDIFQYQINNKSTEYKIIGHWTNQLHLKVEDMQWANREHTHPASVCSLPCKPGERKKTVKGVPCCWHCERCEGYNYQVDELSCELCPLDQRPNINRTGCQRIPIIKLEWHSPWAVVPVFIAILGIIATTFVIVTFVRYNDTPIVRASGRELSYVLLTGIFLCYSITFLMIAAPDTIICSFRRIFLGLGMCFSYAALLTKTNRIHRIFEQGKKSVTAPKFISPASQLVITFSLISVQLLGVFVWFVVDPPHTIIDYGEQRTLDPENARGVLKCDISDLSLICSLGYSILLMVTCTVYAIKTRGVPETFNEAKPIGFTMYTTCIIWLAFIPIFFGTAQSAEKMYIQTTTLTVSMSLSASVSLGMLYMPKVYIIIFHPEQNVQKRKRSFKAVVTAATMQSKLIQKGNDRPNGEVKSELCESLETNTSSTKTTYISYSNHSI
`O=C([C@H](Cc1ccccc1)NS(=O)(=O)c1ccc(Cl)cc1)N1CC[C@@]2(O)CCCC[C@H]2C1`: the z-score was -0.15.

Consider `CCOc1ccc(NC(=O)CSc2nnc(C)n2Cc2ccccc2)cc1`, for which the z-score was -0.275.

Regarding `Cc1noc(NS(=O)(=O)c2ccc(NC(=O)CSc3nnc(-c4ccccc4)n3C3CCCCC3)cc2)c1C`, the z-score is -0.348.

Compound `Cc1cc(C)c(NC(=O)COC(=O)CCc2ccc(S(=O)(=O)N3CCCCC3)cc2)c(C)c1` yielded a z-score of -0.0684.

Regarding `CN1C(=O)NC(c2ccccc2)C2=C1CN(CCc1ccccc1)C2=O` (stereo not given), the z-score was found to be 0.0172.

As for `COc1ccc(CC(=O)NNC(=O)c2ccoc2C)cc1OC`, the z-score was determined as 0.0579.

In the case of `O=C(Nc1ccncc1)c1cn(-c2ccccc2)nc1-c1cccs1`, the z-score is -0.466.

With `Cc1cccc(C)c1OCC(=O)Nn1c(COc2ccccc2)nc2ccccc2c1=O`, the z-score was -0.0916.

In turn, `COc1ccc(-c2nc(CS(=O)CC(=O)NCc3ccc(Cl)cc3)c(C)o2)cc1` (stereo not given) gave a z-score of -0.272.

Consider `N#CC(C#N)C(c1ccsc1)c1c(-c2ccccc2)[nH][nH]c1=O` (stereo not given), for which the z-score was -0.151.

Take `CCC1C/C(=C\c2cccnc2)C(=O)/C(=C/c2cccnc2)C1` (stereo not given): the z-score came out at 0.0883.

Take `O=C(NCc1ccco1)c1ccc(CS(=O)(=O)Cc2ccc(Cl)cc2)o1`: the z-score was -0.145.

Turning to `CCOc1ccc(C(=O)NC(=S)Nc2ccccc2N2CCC(C)CC2)cc1[N+](=O)[O-]`, the z-score amounted to 0.648.

On to `CCCS(=O)(=O)N1CCCC(C(=O)NCCN(CC)c2ccccc2)C1` (stereo not given), for which the z-score is 0.077.

`CC[C@@H](C)[C@H](NC(=O)C1CCN(C(=O)[C@@H](NS(=O)(=O)c2ccc(C)cc2)C(C)C)CC1)C(=O)O`: the z-score amounted to 0.0365.

As for `CC1Cc2ccccc2N1Cc1nc2cc(C(F)(F)F)ccc2c(=O)[nH]1` (stereo not given), the z-score came to 1.57.

In turn, `O=C(O)C1CC(=O)N(c2ccc(OCc3ccccc3Cl)cc2)C1` (stereo not given) yielded a z-score of -0.652.

The compound `Cc1cc(C)c2nc(SCCC#N)nc(C)c2c1` registered a z-score of -0.12.

Regarding `O=C(c1nsc(Cl)c1Cl)N1CCCCC1`, the z-score amounted to 0.0424.

Compound `CCCCC(C(=O)NC(=O)NCc1ccccc1)N1C(=O)c2ccccc2C1=O` (stereo not given) registered a z-score of -0.286.

The compound `CCC(C)NC(=O)CN(C)S(=O)(=O)c1ccc2c(c1)c(=O)n(C)c(=O)n2C` (stereo not given) came in with a z-score of -0.235.

Turning to `COc1ccc(N2C(=O)CC(N3CCN(c4ccccc4F)CC3)C2=O)cc1` (stereo not given), the z-score was -0.0689.

For the compound `COc1cc(NC(=O)c2cc3c(=O)n(C)c4ccccc4c3n2C)cc(OC)c1OC`, the z-score is -0.967.

As for `Cc1ccnc(-n2sc3ccccc3c2=O)n1`, the z-score is -0.415.

In the case of `CCCc1nn(C)c(C(=O)Nc2ccc(C)c(C)c2)c1Cl`, the z-score is -0.0927.

The compound `COC(=O)CN1CCN(C(c2ccccc2)c2ccccc2)CC1` returned a z-score of -0.0339.

With `N/C(CC(=O)Nc1ccc(F)cc1)=N\O`, the z-score came to 0.135.

`O=S(=O)(c1cccs1)n1cnc2ccccc21` registered a z-score of -0.271.

On to `N#Cc1c(Nc2ccccc2)c(C=NCCN2CCOCC2)c[nH]c1=O`, for which the z-score is -0.167.

`CCC(C)(C)n1nnnc1C(c1ccccn1)N1CCOCC1` (stereo not given) gave a z-score of 0.0153.

`COc1ccc(Nc2nnc(SCc3cc([N+](=O)[O-])cc4c3OCOC4)s2)cc1` had a z-score of -0.342.

On to `Cc1ccc(CO/N=C\Cc2snc(Sc3ncc(C(F)(F)F)cc3Cl)c2C#N)cc1`, for which the z-score worked out at 0.0198.

Compound `CCC(C)c1ccc(NC(=O)c2cccs2)cc1` (stereo not given) displayed a z-score of -0.675.

In the case of `CC#CCCCC(=O)Nc1cccc(C(=O)O)c1`, the z-score is -0.382.

`Cc1cc(Nc2ccc(Cl)cc2)nc(NCc2ccccc2)n1` displayed a z-score of -0.173.

In turn, `O=C(COC(=O)c1ccc(Cl)cc1O)Nc1cccnc1Cl` showed a z-score of -0.067.

In the case of `CCC(NS(=O)(=O)c1ccc(OC)cc1)C(=O)O` (stereo not given), the z-score is -0.512.

Take `CCOC(=O)c1cc2sc(C)cc2n1CC(=O)N1CCOCC1`: the z-score was -0.116.

The compound `COc1ccccc1C(=O)N1CCN=C1SCc1cccnc1` gave a z-score of 0.00671.

`Cc1ccc(NC(=O)c2ccc(CSc3nnc(C)s3)cc2)c(C)c1` showed a z-score of -0.22.

`CC1CCCCN1C(=O)c1ccc(C(=O)N2CCCCC2C)cc1` (stereo not given) displayed a z-score of 0.33.

Compound `COC(=O)Cn1cnc2c(C#N)c3n(c2c1=O)CCCCC3` came in with a z-score of 0.15.

Compound `COCCn1c(C)cc(C(=O)COC(=O)c2cncc(Br)c2)c1C` displayed a z-score of 0.145.

`O=C(Nc1cccc(C(=O)N2CCOCC2)c1)c1ccccc1` yielded a z-score of -0.393.

For `COc1cccc(C2CC(c3ccccc3OC)n3nc(N)nc3N2)c1` (stereo not given), the z-score amounted to 0.108.

The compound `N#C/C(=C\c1cccc(Cl)c1)c1n[nH]c(Cn2cncn2)n1` registered a z-score of -0.433.

`COc1ccc(/C=N/N=C/c2ccc(OC)c(O)c2)cc1O` registered a z-score of -0.0586.

Compound `CSc1nnc(-c2sc(-c3ccccc3)nc2C)n1C` yielded a z-score of 0.0959.

Compound `Cc1ccc(C(=O)C2=C(O)C(=O)N(CCCN3CCOCC3)C23C(=O)N(C)c2ccccc23)o1` (stereo not given) gave a z-score of -0.636.

Compound `Cc1ccc(C(=O)N2CCN(c3ccc(NC(=O)c4ccc(Br)o4)cc3)CC2)cc1` returned a z-score of -0.286.

`Cc1ccc(C(CC(=O)NCc2ccco2)c2ccc(OC(C)C)cc2)cc1` (stereo not given): the z-score is -0.967.

Compound `O=C(Nc1ncc(Cc2ccc(C(F)(F)F)cc2)s1)c1ccc(-c2cccc([N+](=O)[O-])c2)o1` gave a z-score of -0.2.

Consider `O=C(CSc1ccc2nnc(-c3ccccn3)n2n1)NCc1ccc2c(c1)OCO2`, for which the z-score is -0.387.

For `CCOc1ccccc1NC(=S)NCC1CCCO1` (stereo not given), the z-score was determined as 0.153.

`COc1ccccc1N1CCN(c2nnc(-c3ccc(F)cc3)c3ccccc23)CC1`: the z-score is -0.347.

Compound `O=C1/C(=C/c2ccncc2)SC(=S)N1C1CCS(=O)(=O)C1` (stereo not given) gave a z-score of -0.126.

`CCCSc1nnc2nc3c(nn12)c1ccccc1n3C` showed a z-score of -0.114.

Compound `COc1cccc(C2C(C#N)=C(N)Oc3c2oc(CO)cc3=O)c1` (stereo not given) yielded a z-score of -1.28.

On to `COc1ccc(Nc2ccc(S(=O)(=O)N3CCCCCC3)cc2[N+](=O)[O-])cc1`, for which the z-score is 0.571.

For the compound `Cc1ccc(C)c(S(=O)(=O)N2CCN(CC(=O)Nc3ccc([N+](=O)[O-])cc3)CC2)c1`, the z-score was -0.137.

Take `Cc1ccccc1NC(=O)C1c2ccccc2Oc2ccccc21`: the z-score is -0.192.

`COCCCN=CC1=C(O)CC(C)(C)CC1=O`: the z-score is -0.139.

For the compound `Cc1cc2n(n1)C(c1ccccc1Cl)Nc1ccccc1-2` (stereo not given), the z-score was -2.39.

In the case of `COc1cc(/C=C(\C#N)c2ccccn2)ccc1OCc1ccc(Cl)cc1`, the z-score is -0.0975.

In turn, `Cc1ccc(Cc2cnc(NC(=O)/C(C#N)=C/c3ccc(-c4cccc([N+](=O)[O-])c4)o3)s2)cc1` yielded a z-score of -0.137.

On to `CCN1CC(O)=C(c2nc3ccccc3s2)C1=N`, for which the z-score was -0.416.

For `COc1ccc(/C=N/NC(=O)c2ccc(-c3ccccc3)cc2)cc1O`, the z-score is -0.232.

In turn, `CCOc1ccc2oc(=O)cc(C)c2c1` registered a z-score of -0.0487.

The compound `CCOC(=O)N1CCC(=NNS(=O)(=O)c2cccc([N+](=O)[O-])c2)CC1` had a z-score of 0.226.

For the compound `COc1ccc(OC)c(-c2csc(NC(=O)C3c4ccccc4Oc4ccccc43)n2)c1`, the z-score amounted to 0.65.

`O=c1oc2cc(Br)ccc2n1CSC1=NCCS1`: the z-score is -0.0696.

`COc1ccc(/C(C)=N/N=C2/NC(=O)CC(C(=O)O)S2)cc1` (stereo not given): the z-score was -0.203.

Consider `CCOC(=O)c1ccc(CNC(=O)c2n[nH]c(=O)c3ccccc23)o1`, for which the z-score was 0.405.

`COc1ccc(S(=O)(=O)N2N=C(C)Oc3ccccc3C2=O)cc1` gave a z-score of 0.107.

Turning to `COc1ccc(N(CC(=O)Nc2cccc(N(C)S(C)(=O)=O)c2)S(C)(=O)=O)cc1OC`, the z-score came out at 0.78.

For the compound `COc1cc(/C=N/NC(=O)c2c(-c3ccccc3)noc2C)ccc1O`, the z-score is -0.215.

In the case of `C=CCSc1nccc(-c2cc(Cl)sc2Cl)n1`, the z-score is -0.089.

The compound `Nc1cc(=O)[nH]c(SCC(=O)Nc2cc(Cl)cc(Cl)c2)n1` yielded a z-score of 0.266.

With `C(=C\c1nnc(-c2cccs2)o1)/c1ccccc1`, the z-score was -0.163.

For the compound `CCOc1ccc(N2C(=O)Nc3ccccc3C2(O)C(=O)NCc2ccc3c(c2)OCO3)cc1` (stereo not given), the z-score was -0.0965.

Regarding `COc1ccc(NC(=O)Nc2ccc(Br)cn2)cc1OC`, the z-score was -0.221.

The compound `CC(C)(O)c1nnn(-c2ccccc2)c1C(F)(F)F` displayed a z-score of -0.0245.

`O=C(COc1cccc(-n2cnnn2)c1)N1CCOCC1`: the z-score was determined as 0.595.

The compound `S=C(NCCc1ccccn1)Nc1ccc(Cl)c(Cl)c1` showed a z-score of 0.684.

`O=C(c1ccccc1)c1c[nH]cc1-c1ccccc1` had a z-score of -0.371.

`Brc1ccc(-c2nnc(-c3cccnc3)c3conc23)cc1` had a z-score of 0.196.

`C=CCNC(=S)N/N=C/c1ccc(-c2ccc(Br)cc2)o1`: the z-score was 0.139.

`O=C(C1CC1)N1CCC(c2nc(-c3ccc(S(=O)(=O)N4CCCC4)cc3)no2)CC1` showed a z-score of 0.261.

Regarding `CCS(=O)(=O)N1CCC(C(=O)NCCc2ccc(OC)c(OC)c2)CC1`, the z-score was -0.284.

Compound `CCOC(=O)c1c(NC(=O)CN2CCCc3ccccc32)sc(C(C)=O)c1C` showed a z-score of 0.00934.

Take `Cc1cc2ncn(-c3ncnc4sc5c(c34)CCC(C)C5)c2cc1C` (stereo not given): the z-score is -0.222.

Compound `COc1ccc(/C=N/NC(=O)C2CCN(c3ncc(C(F)(F)F)cc3Cl)CC2)cc1` had a z-score of 0.0833.

The compound `Cc1ccc(NCc2nnc(SCC(=O)N3c4ccccc4Sc4ccccc43)o2)c(C)c1` registered a z-score of 0.287.

As for `CCN(CC)C(=O)c1cnn(-c2ccccc2)c1NC(=O)c1ccco1`, the z-score was 0.336.

As to `COc1ccccc1Nc1nnc(SCC(=O)c2cc(C)n(CC3CCCO3)c2C)s1` (stereo not given), the z-score is -0.629.

Compound `CCOc1ccccc1NC1c2ccccc2C(=O)N1Cc1ccco1` (stereo not given) returned a z-score of 0.15.

`CC(=O)c1ccc(NC(=S)NCCc2ccccn2)cc1` came in with a z-score of 0.00537.

For `Cc1ccccc1CNCc1cccnc1`, the z-score was -0.689.

In the case of `CCCn1nnnc1NC(=O)c1cc(Cl)ccc1Cl`, the z-score was determined as 0.462.

The compound `CCC(C)c1c(O)nc(SCC(=O)N2CCOCC2)[nH]c1=O` (stereo not given) registered a z-score of 2.93.

For `Fc1ccc(N/N=C2/CC(c3ccccc3)Oc3ccccc32)c(F)c1` (stereo not given), the z-score was 0.298.

`Cc1cc(N2C(=O)CC(N3CCN(c4ccc(C(=O)c5cccs5)cc4)CC3)C2=O)no1` (stereo not given) displayed a z-score of -2.15.

In turn, `c1ccc2oc(-c3ccc(Nc4nc(N5CCCCC5)nc(N5CCOCC5)n4)cc3)nc2c1` came in with a z-score of -0.359.

With `COC(=O)C1CCN(S(=O)(=O)c2ccc(NC(C)=O)cc2)CC1`, the z-score was -0.481.

As for `Cc1cc(=O)oc(C)c1C(=O)Nc1cccc2ccccc12`, the z-score is 0.0875.

As to `COc1ccc(-c2cnc3nc[nH]c(=O)c3n2)cc1`, the z-score was -0.0157.

`CC1CCCC(C)N1C(=O)CSc1nnnn1-c1cccc2c1CCCC2` (stereo not given) yielded a z-score of -0.621.

In turn, `O=C(CSc1ncccc1-c1nc2ccccc2[nH]1)N1CCN(c2ccccc2F)CC1` gave a z-score of -0.631.

`CCOC(=O)CN1NC2(CCCC(C)C2)NC1=S` (stereo not given) came in with a z-score of -0.128.

Compound `COc1ccc(C2C(C#N)=C(N)OC(C(C)(C)C)=C2C#N)cc1OC` (stereo not given) registered a z-score of -0.133.
